Measured values from PMC10726135.
This is one part of the list. At the low end of the ranking, values are background and their order means little. Measured with an extract: partners may take part in the binding.

What follows are sequences tested against T1, HNF4alpha8 (COS-7 nuclear extract) (UniProt P41235-5) (assay: protein-binding microarray). Conditions: COS-7 nuclear extract on double-stranded Agilent 4x180k PBM; binding buffer, salt, pH and temperature not given; high values mean tight binding; double strand, one strand shown; sequences stand for … in …GCCTAGGGAGATTAGAGTATCGGTCGA.
T1 sequence: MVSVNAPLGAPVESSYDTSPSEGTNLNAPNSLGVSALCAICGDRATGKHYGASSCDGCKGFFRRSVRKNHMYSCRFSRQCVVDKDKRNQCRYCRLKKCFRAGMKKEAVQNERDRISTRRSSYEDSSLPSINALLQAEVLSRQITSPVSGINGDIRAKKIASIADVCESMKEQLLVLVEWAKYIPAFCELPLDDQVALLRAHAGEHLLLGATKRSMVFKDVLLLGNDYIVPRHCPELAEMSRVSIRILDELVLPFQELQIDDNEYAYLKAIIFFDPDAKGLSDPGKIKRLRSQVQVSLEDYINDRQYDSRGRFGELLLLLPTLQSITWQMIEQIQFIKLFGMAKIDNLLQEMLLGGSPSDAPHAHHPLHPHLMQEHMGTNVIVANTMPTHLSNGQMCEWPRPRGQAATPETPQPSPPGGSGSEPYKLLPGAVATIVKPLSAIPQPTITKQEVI

Sequence	binding signal (log2 normalized intensity)
GAAGTGGGGGTGAGTCAGTCCCCAGCAATT	1.11
TCTGGTCATGGCCCTGAGGGAGGAGAGAGG	-1.36
CTTCATGGACTCCTCTTATCTTCAGGTATC	0.961
TAAGAAAATGAAAACACAGCTCACCACCTA	-1.24
CTATTAGTGGTTAAGTTTTCGAGGAGTCAA	0.915
CGCCACAGCACCACCTGCTGGTCAGGAGAC	-1.38
GATGGAGATCATCCTGCAGTTCCTGATCTT	-1.07
CAGATAATTCTTTGCTGTGGTAGGCTGTCC	1.98
AAAGGCAGGCAGTGGAGGGCTCCCTTTAGT	-1.36
GGACCGCAGGGGGCTCCCGGACCCTGACTC	1.43
CTTTTGGTATGCAAGGCATGGTGCTTCGCA	-0.0292
GGTTGGCTCTGAAGCAAGGATCAAAGTCAC	2.72
TTATCTACCAGGATGTGTGATCTTGGGTAA	1.1
GAGAGTCCACTCTCCTATCTTTCCCTCCAC	0.358
AATCCTCTGGTCTTTGCCCCAGCTCGCTCA	1.95
TCTAAGATTGGCCCTGATAATCAATCCAGC	-1.17
GTAGTGGGGAGGGCATGGACTTTGGAATTA	8.06
CTTTGAACCCCACACCTCCCTTGCACCAGT	3.35
AAACCAACCTTTGATCATTCCTGCACAGGA	3.8
TCAAGGCAACTTTGGGCCAAATATTTATGG	0.434
AAAGCTGTCTACAAACACAGAAGTGGACCT	3.96
CTGATAGCATAAAGCTAGGAGACAACACCT	-1.23
CTTACGCCGGCCCGGTGCGCTGGCCTTGCT	-1.28
AAATTCCAGCAGGAATTGATATGTTAGTCT	-1.41
CTCTGCAAATTTGCCTTGTCCTTAGACAGT	1.45

Sequence	binding signal (log2 normalized intensity)
TTTTGAGTTTCTGATTAGCCTTTCCAAAGG	1.53
TCTCAGGGGCCTTGCAATGAGGCGACATCA	-1.16
CCCCTGAAATATCATTATCTTGATCAGAAA	0.622
TGGGTGGATTTGGAGATCAGAGTCCAGCTG	3.33
AGAGCTTAAAAGCCCAACACGGGCGAAAAA	-1.34
ACAGGAGCCCAGAGACAGTGGAATCTACAG	-1.36
TAGGACCTTTGAACCAGAGAAGATTCCAGA	3.15
TGCTGGGCCCATTTTCCCATGGTCTGTAGA	-1.07
GACCAAGGGTCAGTTTGAAATTAGGCAATA	1.81
ACCTCCCCCCACACCATTAGAGAACATGTA	4.96
CATGGATTTAGATAAGAGGCAGTCCTGGCT	-1.38
CTTTGTTCTCCGGGTTCTGCGCAGGGAGGA	-0.809
ATTTTACTCACCCCTTGCTGAGTGGAAAAA	0.957
CCTTTGGCCTTTACCTGTTACTTATAAATA	1.05
CCTTTCTACTGCCAGCCAGGGCCACCCATC	0.592
CCTCTCAAACAAAAATGATGCTACTGGAGG	-1.41
TAGAACCGGGGAGATACTGTAAACCAGCAG	-1.29
ACTGAAAAAGGGGACCGGCCTTTCCCGGCT	-1.3
CTGACCTCAAGTGACCTTTGACCTCTGGCC	11.2
AACCTCCGCGATTCCCGCCGCCTCCGCTGG	-1.25
AGGAGTGGTCCTGCTCAAAGGGGAAAGAGG	-1.2
CTTTCTAAAGTATGTGGTGGGTGTGGTGAT	1.79
CCATTAAACATCAGTTTGCATATGCCACAG	-0.0841
CATTGCTCAGACAGGGCAAAGGTGCCAGGT	1.07
GGCTCCCTGGGGTTAAAATGTTTACTGAAG	0.937

Sequence	binding signal (log2 normalized intensity)
CAGAGAGAAGCCACTGCGACCTTTGCCCTC	10
CAGAGATCTAGGTGAGGGATGAGGACTTTG	2.58
TCCAGGGTCACGTGCCGCTGCGGGTCACGT	2.34
TCCCAAGGCAGCAATCCCCTGCAATACAGC	0.796
ACCACACCACAGCGGGGCCTCTGTGTGGGG	-1.02
CTTGGGGTCAAAGTACATCCCCTAAAACAT	6.61
CCACTTGGGCTTCCTCATCTGTTTATCTTT	1.74
GGGGTGACCAGATTAATTACCCACAGGTGT	-1.28
TAATCCCTGAGCCTGGACCTTGGAATGTCA	3.99
CGCAGGGCGGACAGCGCCGCCACCCGGTTG	-1.25
GACATGGCTGTATGTGACATGGACATTCTA	0.165
GGTGTAAGCTCTGGAGTCCAAAGGTCAGCA	8.69
TAGTATCACTGTGAAGACGTTAGGGGGCAG	1.18
TTTCATGTTGTTTAGTCATGCCGAACTTTC	1.68
CAGGACCTCGGCTCGGCCCCAGTCCCCCGG	3.75
TCGCCACTACAAAGGGAATCAGGTTTTCAG	-1.27
CACATAATGATACCAACAGGCTTAACATAA	-1.32
TAAAGAGACAAAAGTCCGGAATTTCCTCCT	-0.869
AGTTTTTCCCATTCATAAAATTACGCCACA	-1.35
GCTATCTTATCTTTGACCTTACCAGCCCAC	2.94
CGCCTGAACTTTGATCAGCATTCAAATGAG	4.5
AGGCGTATCTTTCTCAAGGACCTAGAGCTA	-1.33
GTATTTTTGCAATCCTCCACTCTCCAAAAT	-1.32
CCAGCACTGTCAGCAGGGGGATCCACTTCC	-1.38
GACAAAGCACAATCAAAGCAATGGCTACCA	-1.35

Sequence	binding signal (log2 normalized intensity)
GCGCGGCGCGCTGGGAAGGCTCGTTCTCGC	-1.24
CCCAGGAGCACAAATAACATTCCTAACATT	-1.2
GTTACTGGAGGCTGGAGCTCCTGGGCCAAA	-1.4
TCTGGAAGGAAGGAGGGAGGCAGGGAGACA	-1.38
TATCAGCAAGGAAATAAAAGAGCCTGAGCC	-1.19
CTGCAGATTGACTCAGGCATTCTGACCTTT	7.32
GACGTGACCCGCCGCCCGAGGTCACTGTAT	3.53
GTCAGACCAGACAGCACCTCTCTGATGCCA	-1.19
TCAGCTATCAGTTTACATTCCAGGGTGAAA	0.191
CACAAACATACAACCATCAAAGGTCACTTT	4.93
TCAGTTAATGTACAGAGTATAATAAAGTGG	1.22
AGTTCCATGAGTTAGTGCCCTCTGGTGGCA	2.48
TGGCTCCTCACCTCCAGGGAGGGGAGAGGG	-1.3
CAAACTGCATTCTTGTAGGTTTTTTTTTTT	2.45
GCCCTGGTTGAGGAATTTGGCTCTAGAGGA	-1.23
GGGCCAGCAAGAGGTGACCCCAGGGCAAAG	3.69
AGATAGAGGGCTGCCAAAGCTCACAGATGT	-1.42
AGCCCGAGCTGCTGGAACAGGCTGGGACAC	-1.44
ACGAAGAGCAAACATGGGCTTAAGACAAGA	-1.29
TTTGCTCTGATCTTTGACTTCTAGTTCTTA	2.18
CCAGAACTATCATACACTATTTTCCTAAAT	-1.36
TAGGTTATCTTTGGAGAATGCCTTTTGTGT	1.81
AGAAGGCAAAAATGCAGGCAATGAATAGAA	-1.17
TTTTAAGGTCTGGCATTCTTTTTGACCTTT	8.23
TGTTTTTTGCCCTTTGTACCCACACACACC	7.36

Sequence	binding signal (log2 normalized intensity)
CCGCTGGCCTCCCCATCCTCATGACAGTAC	2.98
GTTCACAAATAGCAGAAAATCCAGGTGCAG	-1.29
TCCCCACTTATTACCGGTGTGACTTTGGTT	2.28
AAACTCCTTCCCTTTCATGTTGAACGTCTT	1.84
CTGGTTGAGGCAAGCAAAAGCCAAGGCATC	-1.41
TGGCCCTCTTCCAAGTGTTCTTTACTTCCT	0.96
TGAAGTTACAAAGGTCACACACCTGTGCAA	4.56
CACTTGTGTGTAGACTCCAGGCTTGTCCTT	1.71
CCACAGTATCCCTTGCTCAACTCCCTCTGA	-1.05
GAGAAACACATAAACCCTGACCCTCAAGGG	1.55
CAAACAAATGCAAAACTGGCAAAACTGGTC	-1.26
TAATCACTGCCCTTTGGTGCCTCTTTTTTC	2.22
GCTGCCCTGGTAAGTTCCACTGCATCAGTG	-1.23
TTGATCATTCCTGCACAGGACTGCTCTCTA	-0.304
GTTCAGTTAGAGGGCTCAATGGATACACCA	-1.31
CAGTAGAAAACAGAGAAGCCGTGGTGCTGT	-1.03
TTCTTGTATCTGATCTGTGTTTCCACAAAC	1.52
GGAGGCTCAGAGTCTGTGGAGACACTGCCA	-1.24
GATAAAATGAAATCGCCTGATTGGTCATAC	0.0457
GTGACCTTTGACCTCTGGCCTTTGCAGTTA	8.79
AGTTGGAGGAACAGGTGGGGGTAAACATAG	-1.22
GCAAGGCTAGAGATTCTCCCTGGGGCCTCT	-1.37
TGGCATGATCCCTGACTCATAGCTCCAGAG	-1.24
TCAGATGAGACTTTGGACTTTTGAACTAAG	7.23
CAGAGGCTTCCTCTTTGGTGCAAAGGTCAG	7.47

Sequence	binding signal (log2 normalized intensity)
ACCCAGATAAGTTATCCTTGTTCTATGTTC	1.73
CTCGGGGATTAGCGATCATGGGTGACCCGT	3.6
GAAGTTTTGCAATATAGGCCAGGCATACCT	-1.4
TGAGAGAGAAAGAGACAGAGAGAGAGAGAG	-1.34
CTCTGGAGTGCAGGTGGGAGGGGTGGACTT	3.11
TCAGGGCAAAGACTCAAATCCAAGCTGGCT	-1.26
CGACTCAGTGGGGGGGGGGGGGGGGGTGTG	-1.33
GCATTTGCTCCCTGACTTGGTTTACAAGGT	0.867
CAGTCATTGCCATCTGCAAGAGAGAATAGA	-1.32
ACCCTCTGGGGCCGGGAGCAGGGAGCGAGA	-1.22
TGCAGGTTCATGGGAGAGCACTTGGTGCCT	-0.358
CCTGACCTGAAAGGTAGGCAGAGAGGCTGC	-1.23
CCCAGCGGATTAATATCCAGAGGCTGAGCA	-1.4
TTATCTCACAAGCATGGGCCTCCTCTTCTT	-1.36
GCTCTCCCACTCCCCCTGCTGGACACCGAG	3.59
CAGGGTAGAAAAGAGTTAAAAAAAAAAAAA	-1.4
TGATAGCTAGAGAGTTCAAGAAGGGCAGTT	1.28
TACTGAAATGCCAAAAAAGAAGAAGTGAAA	-1.21
CCTTTTTTTTGTGTGTGTGTCAGAGACCCA	2.33
GGACTGTGACCCCACCTCTCAGACAGAGCT	3.8
